The values that follow come from the supplement of paper PMC10037445.

Experiment [1] has as its system RAW-Dual. As to the kind of experiment: NF-kB SEAP reporter activity, fold change vs agonist alone; higher = enhanced NF-kB activity. Summed up:
(§1)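 Reporter activity is given as fold change relative to agonist-alone wells. To measure it, 50 nL of library stock was pin-tooled onto RAW-Dual macrophages (50,000 cells/well, DMEM, 384-well plates), a PRR agonist followed 1 h later, and cells stayed at 37 °C, 5% CO2. Twenty hours on, supernatant was assayed for IRF (QuantiLuc luminescence) and NF-κB (QuantiBlue, 620 nm absorbance), and wells under 70% of agonist-control IncuCyte confluency in both mask sets were marked cytotoxic.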

Experiment [2] relates to RAW-Dual. Briefly: NF-kB SEAP reporter activity, fold change vs agonist alone; cytotoxicity flag (confluency mask): not cytotoxic; higher = enhanced NF-kB activity. Summed up:
as §1

Experiment [3] concerns RAW-Dual. Briefly: NF-kB SEAP reporter activity, fold change vs agonist alone; cytotoxicity flag (confluency mask): cytotoxic (confluency <70% of control); higher = enhanced NF-kB activity. Summed up:
as §1

Setting [4] is: library stock concentration (final ~1000-fold dilution): 10 mM, cytotoxicity flag (confluency mask): not cytotoxic, agonist: Imiquimod (TLR7) […].
Setting [5] is: library stock concentration (final ~1000-fold dilution): 10 mM, cytotoxicity flag (confluency mask): not cytotoxic, agonist: MPLA (TLR4) […].
[6] abbreviates: agonist: ODN 1826 (TLR9) 0.5 ug/mL.
Setting [7] is: agonist: Pam2CSK4 (TLR2/6) 0.1 ug/mL.
Setting [8] is: agonist: Pam3CSK4 (TLR2/1) 0.1 ug/mL.
Where [9] appears, read: library stock concentration (final ~1000-fold dilution): 10 mM, cytotoxicity flag (confluency mask): cytotoxic (confluency <70% of control), agonist: Imiquimod (TLR7) […].
Setting [10] is: library stock concentration (final ~1000-fold dilution): 10 mM, cytotoxicity flag (confluency mask): cytotoxic (confluency <70% of control), agonist: MPLA (TLR4) […].

Several values for one entry are separate records, joined by “and”; a condition that tells them apart may be missing. Equal values may be shown once. Over roughly 2,900 compounds, “NF-kB SEAP reporter activity, fold change vs agonist alone” has its median near 0.99; the highest 2% begin near 2.6. Some of the results follow.

For the compound `CN(C)CCCNC(=O)c1ccc(-c2cc(O)c3ncccc3c2)cc1`, the entries for the “NF-kB SEAP reporter activity” value in the experiment on RAW-Dual [1] (setting [4]) and with RAW-Dual [1] (setting [5]) were 1.08 and 1, respectively.
For `CN(C)CCCNC(=O)c1ccc(-c2cc(O)c3ncccc3c2)cc1` (library stock concentration (final ~1000-fold dilution): 10 mM), the “NF-kB SEAP reporter activity” value turned out to be 0.881 in the experiment on RAW-Dual [2] (agonist: LPS (TLR4) 0.1 ug/mL), 1.38 with RAW-Dual [2] (setting [6]), 1.13 in the experiment with RAW-Dual [2] (setting [7]) and 1.34 in the experiment with RAW-Dual [2] (setting [8]).
`C[C@@H]1O[C@@H](Oc2c(-c3ccc(O)c(O)c3)oc3cc(O)cc(O)c3c2=O)[C@H](O)[C@H](O)[C@H]1O`: the “NF-kB SEAP reporter activity” value in the experiment with RAW-Dual [1] (setting [4]) was 0.959; in the experiment on RAW-Dual [1] (setting [5]) it was 1.17.
As for `C[C@@H]1O[C@@H](Oc2c(-c3ccc(O)c(O)c3)oc3cc(O)cc(O)c3c2=O)[C@H](O)[C@H](O)[C@H]1O` (library stock concentration (final ~1000-fold dilution): 10 mM), the “NF-kB SEAP reporter activity” value with RAW-Dual [2] (agonist: LPS (TLR4) 0.1 ug/mL) was 0.954; in the experiment with RAW-Dual [2] (setting [6]) it was 1.04; with RAW-Dual [2] (setting [7]), 1.02; with RAW-Dual [2] (setting [8]), 1.06.
For `N#Cc1cc(-c2ccnc(Nc3ccc(N4CCOCC4)cc3)n2)ccc1OC1CCOCC1` (library stock concentration (final ~1000-fold dilution): 10 mM), the “NF-kB SEAP reporter activity” value in the experiment on RAW-Dual [2] (setting [8]) was 3.66.
For the compound `Cc1nn(C)c2nc(NNC(=O)Nc3cc(Cl)nc(Cl)c3)cc(C(C)C)c12` (library stock concentration (final ~1000-fold dilution): 10 mM), the “NF-kB SEAP reporter activity” value turned out to be 1.5 with RAW-Dual [2] (agonist: LPS (TLR4) 0.1 ug/mL), 1 in the experiment with RAW-Dual [2] (setting [6]), 0.819 in the experiment with RAW-Dual [2] (setting [7]) and 1.03 with RAW-Dual [2] (setting [8]).
`Cc1nn(C)c2nc(NNC(=O)Nc3cc(Cl)nc(Cl)c3)cc(C(C)C)c12`: the “NF-kB SEAP reporter activity” value was found to be 0.652 with RAW-Dual [1] (setting [4]) and 1.27 with RAW-Dual [1] (setting [5]).
For `O=C(O)Cc1ccccc1Nc1c(Cl)cccc1Cl` (library stock concentration (final ~1000-fold dilution): 10 mM), the “NF-kB SEAP reporter activity” value in the experiment with RAW-Dual [2] (agonist: LPS (TLR4) 0.1 ug/mL) was 0.969 and 0.937; with RAW-Dual [2] (setting [6]) it was 0.996 and 0.869; in the experiment with RAW-Dual [2] (setting [7]) it was 1.02 and 0.988; in the experiment with RAW-Dual [2] (setting [8]), 0.983 and 0.816.
`Cc1c(NC(=O)c2ccc(C(C)(C)C)cc2)cccc1-c1cn(C)c(=O)c(Nc2ccc(C(=O)N3CCOCC3)cc2)n1` (library stock concentration (final ~1000-fold dilution): 10 mM): the “NF-kB SEAP reporter activity” value in the experiment on RAW-Dual [2] (agonist: LPS (TLR4) 0.1 ug/mL) turned out to be 1.02; in the experiment with RAW-Dual [2] (setting [6]), 0.926; in the experiment with RAW-Dual [2] (setting [7]), 0.924; in the experiment with RAW-Dual [2] (setting [8]), 0.941.
For `Cc1c(NC(=O)c2ccc(C(C)(C)C)cc2)cccc1-c1cn(C)c(=O)c(Nc2ccc(C(=O)N3CCOCC3)cc2)n1`, the “NF-kB SEAP reporter activity” value turned out to be 0.961 with RAW-Dual [1] (setting [4]) and 0.992 with RAW-Dual [1] (setting [5]).
For `O=c1ncn2nc(Sc3ccc(F)cc3F)ccc2c1-c1c(Cl)cccc1Cl` (library stock concentration (final ~1000-fold dilution): 10 mM), the “NF-kB SEAP reporter activity” value in the experiment on RAW-Dual [2] (agonist: LPS (TLR4) 0.1 ug/mL) was determined as 0.58; in the experiment with RAW-Dual [2] (setting [6]) it was 0.753; with RAW-Dual [2] (setting [7]), 0.504; in the experiment with RAW-Dual [2] (setting [8]), 0.525.
Turning to `O=c1ncn2nc(Sc3ccc(F)cc3F)ccc2c1-c1c(Cl)cccc1Cl`, the “NF-kB SEAP reporter activity” value amounted to 0.75 in the experiment with RAW-Dual [1] (setting [4]) and 0.801 with RAW-Dual [1] (setting [5]).
In the case of `CNC(=O)c1ccccc1Oc1nc(Nc2cc(OC)c(OC)c(OC)c2)ncc1Br`, the “NF-kB SEAP reporter activity” value with RAW-Dual [1] (setting [4]) came out at 0.687; in the experiment on RAW-Dual [1] (setting [5]), 0.745.
Consider `CNC(=O)c1ccccc1Oc1nc(Nc2cc(OC)c(OC)c(OC)c2)ncc1Br` (library stock concentration (final ~1000-fold dilution): 10 mM), for which the “NF-kB SEAP reporter activity” value with RAW-Dual [2] (agonist: LPS (TLR4) 0.1 ug/mL) was 0.807; with RAW-Dual [2] (setting [6]), 0.615; in the experiment on RAW-Dual [2] (setting [7]) it was 0.363; in the experiment with RAW-Dual [2] (setting [8]) it was 0.41.
Consider `O=c1[nH]cc(F)c(=O)[nH]1` (library stock concentration (final ~1000-fold dilution): 10 mM), for which the “NF-kB SEAP reporter activity” value was 1.39 in the experiment with RAW-Dual [3] (agonist: LPS (TLR4) 0.1 ug/mL), 1.97 in the experiment on RAW-Dual [3] (setting [6]), 0.912 with RAW-Dual [3] (setting [7]) and 1.21 in the experiment with RAW-Dual [3] (setting [8]).
On to `O=c1[nH]cc(F)c(=O)[nH]1`, for which the “NF-kB SEAP reporter activity” value in the experiment with RAW-Dual [1] (setting [9]) was 1.83; with RAW-Dual [1] (setting [10]), 1.33.
As for `Cl.Nc1c(Br)cc(Br)cc1CNC1CCC(O)CC1` (stereo unspecified) (library stock concentration (final ~1000-fold dilution): 2 mM), the “NF-kB SEAP reporter activity” value with RAW-Dual [2] (agonist: LPS (TLR4) 0.1 ug/mL) turned out to be 1.14; with RAW-Dual [2] (setting [6]), 1.03; in the experiment with RAW-Dual [2] (setting [7]), 1.18; with RAW-Dual [2] (setting [8]), 1.19.
As for `Cl.Nc1c(Br)cc(Br)cc1CNC1CCC(O)CC1` (stereo unspecified), the “NF-kB SEAP reporter activity” value came out at 0.669 in the experiment with RAW-Dual [1] (library stock concentration (final ~1000-fold dilution): 2 mM, cytotoxicity flag (confluency mask): not cytotoxic, agonist: Imiquimod (TLR7) […]) and 1.04 with RAW-Dual [1] (library stock concentration (final ~1000-fold dilution): 2 mM, cytotoxicity flag (confluency mask): not cytotoxic, agonist: MPLA (TLR4) […]).
Regarding `CC(=O)Oc1cc(C(F)(F)F)ccc1C(=O)O`, the “NF-kB SEAP reporter activity” value in the experiment with RAW-Dual [1] (setting [4]) stood at 1.04; with RAW-Dual [1] (setting [5]), 1.01.
For `CC(=O)Oc1cc(C(F)(F)F)ccc1C(=O)O` (library stock concentration (final ~1000-fold dilution): 10 mM), the “NF-kB SEAP reporter activity” value turned out to be 1.25 in the experiment with RAW-Dual [2] (agonist: LPS (TLR4) 0.1 ug/mL), 1.01 with RAW-Dual [2] (setting [6]), 1.23 with RAW-Dual [2] (setting [7]) and 1.16 with RAW-Dual [2] (setting [8]).
For `O=c1c(O[C@@H]2OC[C@@H](O)[C@H](O)[C@H]2O)c(-c2ccc(O)c(O)c2)oc2cc(O)cc(O)c12` (library stock concentration (final ~1000-fold dilution): 10 mM), the “NF-kB SEAP reporter activity” value is 0.336 in the experiment on RAW-Dual [3] (agonist: LPS (TLR4) 0.1 ug/mL), 0.322 with RAW-Dual [3] (setting [6]), 0.16 in the experiment on RAW-Dual [3] (setting [7]) and 0.284 with RAW-Dual [3] (setting [8]).
Consider `O=c1c(O[C@@H]2OC[C@@H](O)[C@H](O)[C@H]2O)c(-c2ccc(O)c(O)c2)oc2cc(O)cc(O)c12`, for which the “NF-kB SEAP reporter activity” value with RAW-Dual [1] (setting [9]) was determined as 0.313; in the experiment on RAW-Dual [1] (setting [10]), 1.54.
Taken in the same sequence, the figures for `CCOC(=O)N1CCC(=C2c3ccc(Cl)cc3CCc3cccnc32)CC1` were 1.03 and 0.903.
On to `CCOC(=O)N1CCC(=C2c3ccc(Cl)cc3CCc3cccnc32)CC1` (library stock concentration (final ~1000-fold dilution): 10 mM), for which the “NF-kB SEAP reporter activity” value in the experiment on RAW-Dual [3] (agonist: LPS (TLR4) 0.1 ug/mL) amounted to 0.681; in the experiment on RAW-Dual [3] (setting [6]) it was 0.801; in the experiment with RAW-Dual [3] (setting [7]) it was 0.551; with RAW-Dual [3] (setting [8]) it was 0.5.
As for `CC1c2cccc(O)c2C(=O)C2=C(O)C3(O)C(=O)C(C(N)=O)=C(O)C(N(C)C)C3C(O)C21` (stereo unspecified), the “NF-kB SEAP reporter activity” value with RAW-Dual [1] (setting [5]) is 1.13.
`CC1c2cccc(O)c2C(=O)C2=C(O)C3(O)C(=O)C(C(N)=O)=C(O)C(N(C)C)C3C(O)C21` (stereo unspecified) (library stock concentration (final ~1000-fold dilution): 10 mM): the “NF-kB SEAP reporter activity” value turned out to be 1.81 with RAW-Dual [2] (agonist: LPS (TLR4) 0.1 ug/mL), 0.966 in the experiment with RAW-Dual [2] (setting [6]), 0.896 in the experiment on RAW-Dual [2] (setting [7]) and 0.885 in the experiment with RAW-Dual [2] (setting [8]).
